The whole screen tested about 150,000 compounds, of which about 540 (0.36%) showed an effect of 50% or more. The list shows a part of the results.
What follows are compounds tested on Plasmodium falciparum (assay: Primary screen in NF54 nanoGlo assay, in single point, at 2uM, 72h; a lower Z score goes with more inhibition). Details: timepoint 72 hour.
Format: functional, Erythrocyte
For `COc1cccc(Cn2ncnc2[C@H](C)n2cc(Cl)cn2)c1`, the “% Inhibition” value was -2% and the Z score was 0.35. `Nc1ccc2c(c1)S(=O)(=O)c1cc(N)ccc1C2` was tested, and the “% Inhibition” value was -2% and the Z score was 0.25. In the case of `CC(C(=O)N1CCCc2ccccc21)N1CCCC(c2nncn2C2CC2)C1` (stereo not given), the “% Inhibition” value was -7% and the Z score was 0.83. In the case of `Cc1nnc(-c2cc(C(C)C)n(-c3ccc(C(=O)NC4Cc5ccccc5C4)cc3)n2)o1`, the “% Inhibition” value was -4% and the Z score was 0.56. With `CS(=O)(=O)CCn1cccc(NC(=O)C2CC3CCC2C3)c1=O` (stereo not given) the “% Inhibition” value was 5% and the Z score was -0.72. For `CC(OC(=O)c1ccc(N2CCCC2)nc1)C1CCOC1` (stereo not given), the “% Inhibition” value was -7% and the Z score was 0.92. For `CC1CCN([C@@H]2[C@H](O)[C@H](CO)O[C@@H]2CNS(=O)(=O)c2ccccc2)CC1`, the “% Inhibition” value was 26% and the Z score was -2.92. `CN(CC#N)CC(=O)N(C)Cc1ccc(F)cc1` was tested, and the “% Inhibition” value was -7% and the Z score was 0.67. In the case of `CCCCC1CC1C(=O)NC1Cc2ccccc2C1` (stereo not given), the “% Inhibition” value was -9% and the Z score was 0.85. In the case of `Cn1ccc(C(=O)N2CC=CC23CCCCC3)n1`, the “% Inhibition” value was -10% and the Z score was 1.12. For `Cc1ccnc([C@@H](NC(=O)c2ncoc2C)C2CC2)c1`, the “% Inhibition” value was -4% and the Z score was 0.77. For `CC1Cc2ccc(F)cc2C1NCCc1ccc(S(N)(=O)=O)cc1` (stereo not given), the “% Inhibition” value was -2% and the Z score was 0.28. `C#CCN(C)CC[C@@H]1CC[C@H](O)[C@@H](C(=O)NCc2ccc(OC)cc2)O1` was tested, and the “% Inhibition” value was 7% and the Z score was -0.81. With `COc1cc2c(N3CCCC4C(NC(=O)C(F)F)C(C)(C)C43)ncnc2cc1F` (stereo not given) the “% Inhibition” value was -2% and the Z score was 0.37. In the case of `O=C1COc2ccc(Cl)cc2CN1C1CCCCCC1`, the “% Inhibition” value was 30% and the Z score was -3.35. For `CC(C)(C)OC(=O)N1CC(OC(=O)Nc2cccc(F)c2)C1`, the “% Inhibition” value was -4% and the Z score was 0.52. With `Cc1nc2c(s1)CCC[C@@H]2Nc1ncnc2c1CCNCC2` the “% Inhibition” value was -1% and the Z score was 0.23. With `COc1nn(C)c(C)c1NC(=O)N1CCN(c2cc(C)nc(N)n2)CC1` the “% Inhibition” value was -5% and the Z score was 0.85. With `O=C(c1ccc(F)cc1)N1Cc2cccnc2C1` the “% Inhibition” value was -13% and the Z score was 1.54. `Cc1cc(C)c(C(=O)N2CCC[C@H](C(=O)NCc3ccccc3C)C2)[nH]1` was tested, and the “% Inhibition” value was 7% and the Z score was -0.97. `NC(=O)[C@H]1CCCN(C(=O)c2coc(CN3CCN(c4ccccc4F)CC3)n2)C1` was tested, and the “% Inhibition” value was -11% and the Z score was 1.52. With `Cc1nn(C)c2c(-c3ccccc3)c(O)ccc12` the “% Inhibition” value was 1% and the Z score was -0.06. With `CC(C)(CNC(=O)NCCOc1ccc(F)c(F)c1)C(N)=O` the “% Inhibition” value was 3% and the Z score was -0.33. `c1nc2n(n1)C[C@@H](NCc1noc(C3CC3)n1)CC2` was tested, and the “% Inhibition” value was -14% and the Z score was 1.62. In the case of `COc1ccnc(N2CCN(c3ccc(C(F)(F)F)nn3)CC2)c1`, the “% Inhibition” value was -12% and the Z score was 2.28. For `COc1ccc2c(c1)N1CCN(c3ccccc3)CC1C(C(=O)N1CCOCC1)C2` (stereo not given), the “% Inhibition” value was -7% and the Z score was 1.31. In the case of `Cc1nc(NC(=O)C2(CF)CCC2)nn1C`, the “% Inhibition” value was 3% and the Z score was -0.42. In the case of `COc1ccc(-c2ccc(-c3cnco3)cc2)c(OC)n1`, the “% Inhibition” value was -3% and the Z score was 0.49. `Cc1ccc(CN2CC(N(CC(C)C)C3CCOCC3)C2)cc1` was tested, and the “% Inhibition” value was -10% and the Z score was 1.85. For `COc1cc2cc(c1)C(=O)NCCCC(=O)N[C@H]1CN(C(=O)CCn3nc(C)c(C)c3C)CC[C@@H]1OCc1cccc(c1)O2`, the “% Inhibition” value was -1% and the Z score was 0.17. In the case of `C[C@@H]1CN(C(=O)c2cc(F)cc(C#N)c2)CC[C@@]1(O)C1CCOCC1`, the “% Inhibition” value was -3% and the Z score was 0.68. In the case of `CCC1CCCCN1Cc1cc(F)cc2c1OC(c1ccsc1)OC2` (stereo not given), the “% Inhibition” value was -5% and the Z score was 0.98. With `CCC(NCC1CCCS1(=O)=O)c1ccc(F)cc1F` (stereo not given) the “% Inhibition” value was -10% and the Z score was 2.03. In the case of `O=C1CCC(N2CCCC(O)C2)CCN1Cc1ccccc1Cl` (stereo not given), the “% Inhibition” value was -5% and the Z score was 0.73. For `COc1ccc(CN2C(=O)COC[C@H]2C(=O)NCc2ccccc2OC)c(OC)c1`, the “% Inhibition” value was 0% and the Z score was 0.03. `COc1ccc([C@@H]2c3cccn3-c3ccccc3N2C(=O)CN(C(=O)Nc2ccc(C)cc2C)C(C)C)cc1` was tested, and the “% Inhibition” value was -7% and the Z score was 0.85. `Cc1ccc2c(c1)CN(CCC(=O)NCC1CCCO1)CC(C)O2` (stereo not given) was tested, and the “% Inhibition” value was 23% and the Z score was -2.92. For `CCc1nn(C)cc1CNC(=O)NCC1CC12CCc1ccccc12` (stereo not given), the “% Inhibition” value was -10% and the Z score was 1.58. `CCc1nnsc1C(=O)NCc1ccc(N2CCCC2)cc1` was tested, and the “% Inhibition” value was 13% and the Z score was -1.41. For `O=C(c1cc(C2CC2)nc2ccccc12)N1CCCCCC1`, the “% Inhibition” value was -5% and the Z score was 0.69. With `O=C(NCCC1=CCCCC1)C1CCN(c2nc3cccnc3s2)CC1` the “% Inhibition” value was 16% and the Z score was -1.44. With `Cc1ccc([C@H](C)NC(=O)CNCc2sccc2C)cc1` the “% Inhibition” value was 8% and the Z score was -1.06. With `O=C(NCCCN1C(=O)CCC1=O)NCC(F)(F)F` the “% Inhibition” value was 0% and the Z score was 0.02. For `CCn1cnnc1CN(C)c1nc(N)nc(C)c1Cl`, the “% Inhibition” value was -6% and the Z score was 0.67. In the case of `CNC(=O)c1ccnc(N(C)Cc2csc(-c3cccs3)n2)c1`, the “% Inhibition” value was 2% and the Z score was -0.34. For `CNC(=O)CCCN(C)C(=O)Cc1ccc(Br)cc1C`, the “% Inhibition” value was -14% and the Z score was 1.83. With `CC1(C)CN(c2ncnc3[nH]c(Cl)cc23)[C@H]2COC[C@@H]2O1` the “% Inhibition” value was -10% and the Z score was 1.05. For `O=C(CCc1ccc(F)c(F)c1)N[C@H]1COC[C@@H]1N1CCCCC1`, the “% Inhibition” value was -7% and the Z score was 1.46. With `CC(C)CN1CCN(C(=O)c2cn3ccnc(-c4ccc(F)cc4)c3n2)CC1` the “% Inhibition” value was 1% and the Z score was -0.18. With `C#CCCCn1nc(C2CCN(C(=O)OC(C)(C)C)CC2)c2c1CCOC2` the “% Inhibition” value was -11% and the Z score was 1.47. With `CCOCC(C)(C)NC(=O)c1ccc(CCC(C)(C)O)cc1` the “% Inhibition” value was 0% and the Z score was 0.04. `Clc1ccc(CN2CCn3nc(CNc4cnccn4)cc3C2)o1` was tested, and the “% Inhibition” value was -12% and the Z score was 2.1. In the case of `N#Cc1ccc(OCC(=O)c2ccc3c(c2)CCCC(=O)N3)cc1`, the “% Inhibition” value was -10% and the Z score was 0.88. With `CC(C)CCN(CC(=O)NC(C)C)C1CC1` the “% Inhibition” value was 4% and the Z score was -0.51. `O=C(Nc1nc(C2CC3CCC2C3)cs1)NC1CCc2[nH]cnc2C1` (stereo not given) was tested, and the “% Inhibition” value was 4% and the Z score was -0.35.
